Consider 1 molecule from patent US10669314B2, “Polypeptide” (Affibody AB, priority 2014, dated 2020).

The test system of experiment [1] is IL-6 trans-signaling dependent secretion of MCP-1 in HUVECs. The experiment in a line: HUVEC trans-signaling assay, MCP-1 production. The note with it: fusions with ABD variant PP013, in the presence of HSA. Format: cell-based, human. The protocol: To address the trans-signaling pathway, a second assay was used. Herein, human umbilical vein endothelial cells (HUVECs) were stimulated with hIL-6 and soluble hIL-6Rα and the readout was the production of monocyte chemoattractant protein-1 (MCP-1). HUVECs (Lonza) were grown in EGM-2 bullet kit media (Lonza) and passaged in culture no more than eight times. Cells were grown until 75% confluence before use. Cells were detached using trypsin/EDTA (Lonza), resuspended and washed once in fresh medium. Next, cells were counted and dispensed into 96 well flat bottom plates at a density of 2×10^4 cells per well. Cells were cultured overnight at 37° C. in a humidified 5% CO2 atmosphere. […] The pre-mixed solutions with the test molecules and hIL-6/hIL-6Rα were then transferred to wells containing HUVECs, which were incubated for 24 h at 37° C. in a humidified 5% CO2 atmosphere. Cell free supernatant was collected after the incubation period and human MCP-1 levels were determined by sandwich ELISA using the MCP-1 Duoset ELISA development system (R&D Systems).
Half area 96-well ELISA plates were coated with anti-MCP-1 capture antibody (R&D Systems) at a concentration of 1 μg/ml. Plates were incubated overnight at 4° C., washed twice in tap water and blocked for 1 h in PBSC. […] The absorbance was measured at 450 nm using a microplate reader (Victor^3, Perkin Elmer).

The subject of experiment [2] is IL-6 triggered serum amyloid-A (SAA) protein release. The experiment in a line: Serum Amyloid A (SAA) mouse model. Format: in vivo. To be noted: Balb/c mice. The procedure: The IL-6 targeting Z variant Z06814 (SEQ ID NO:1512) and a control Z variant Z04726 (SEQ ID NO:1535) binding an irrelevant target, were cloned and produced in fusion with the ABD variant PP013 (SEQ ID NO:1554) as described in Example 2. Four groups of Balb/c mice (n=8) were injected subcutaneously (s.c.) with various doses (0, 0.025, 2.5 or 25 mg/kg body weight) of Z06814-ABD 9 h prior to intraperitoneal (i.p.) administration of hIL-6 at 5 μg/kg (R&D Systems). A fifth group of mice (n=8) received 25 mg/kg of Z04726-ABD. Two additional control groups of mice received PBS (n=4) and 25 mg/kg of Z06814-ABD (n=8), respectively, but no subsequent IL-6 injection. After 20 h, the blood was taken by cardiac puncture and serum was collected.
Serum was assessed for the content of murine SAA by ELISA (Tridelta) according to the manufacturer's instructions. In brief, diluted serum samples were added to SAA-precoated plates together with anti-SAA-HRP. The plates were incubated for 1 h and then washed four times. TMB substrate was added for 20 min and the reaction was stopped with stop solution. The absorbance was measured at 450 nm using a microplate reader (Victor^3, Perkin Elmer).

B1: Z06814-ABD: Z06814 (SEQ ID NO:1512) fused to PP013 (SEQ ID NO:1554), MGSSLQ-[Z]-VDGS-PP013 (protein)
chain: MGSSLQVDAKYAKEEQRAWREIHLLPNLTIEQMAAFIWKLLDDPSQSSELLSEAKKLNDSQAPKVDGSLAEAKEAANAELDSYGVSDFYKRLIDKAKTVEGVEALKDAILAALP
In the case of B1, the “inhibition of IL-6 mediated trans-signaling in HUVECs” value in experiment [1] is listed as “more potent than tocilizumab”. In addition, the “SAA protein levels versus dose” value in experiment [2] (0.025, 2.5 or 25 mg/kg s.c. 9 h before hIL-6 5 μg/kg i.p.) is on record as “significantly lower SAA protein levels were measured in a dose-dependent manner”. Further, the “SAA protein levels at the highest dose” value in experiment [2] (25 mg/kg body weight s.c. 9 h before hIL-6 5 μg/kg i.p.) is on record as “as low as for animals given no hIL-6 injection”.
